In the supplement of paper PMC6746778:
The list shows a part of the results. Many values rest on one well or one pass, so single values are uncertain.

How the values were obtained:
Test in all cases: proliferation Z-score within cell line (SRB, relative to all inhibitors screened on that line); triple-negative breast cancer lines and a kinase inhibitor library; SRB is the sulforhodamine B protein stain; higher = less growth inhibition (more resistant)
Conditions in all cases: concentration: 1 µM; 4 days
Bt20 = tested on: Bt20
Bt549 = tested on: Bt549
HCC1143 = tested on: HCC1143
HCC1806 = tested on: HCC1806
HCC1937 = tested on: HCC1937
HCC38 = tested on: HCC38
HCC70 = tested on: HCC70
Hs578T = tested on: Hs578T
MDA-MB-231 = tested on: MDA-MB-231
MDA-MB-435s = tested on: MDA-MB-435s
MDA-MB-436 = tested on: MDA-MB-436
MDA-MB-453 = tested on: MDA-MB-453
MDA-MB-468 = tested on: MDA-MB-468
SKBR7 = tested on: SKBR7
SUM1315MO2 = tested on: SUM1315MO2
SUM149PT = tested on: SUM149PT
SUM159PT = tested on: SUM159PT
SUM185PE = tested on: SUM185PE
SUM229PE = tested on: SUM229PE
SUM52PE = tested on: SUM52PE
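Also: Single-dose primary screen of a 378-member kinase inhibitor library in 96-well plates, with growth read as absorbance of protein-bound SRB dye after TCA fixation.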

Compound	proliferation Z-score within cell line (Bt20)	proliferation Z-score within cell line (Bt549)	proliferation Z-score within cell line (HCC1143)	proliferation Z-score within cell line (HCC1806)	proliferation Z-score within cell line (HCC1937)	proliferation Z-score within cell line (HCC38)	proliferation Z-score within cell line (HCC70)	proliferation Z-score within cell line (Hs578T)	proliferation Z-score within cell line (MDA-MB-231)	proliferation Z-score within cell line (MDA-MB-435s)	proliferation Z-score within cell line (MDA-MB-436)	proliferation Z-score within cell line (MDA-MB-453)	proliferation Z-score within cell line (MDA-MB-468)	proliferation Z-score within cell line (SKBR7)	proliferation Z-score within cell line (SUM1315MO2)	proliferation Z-score within cell line (SUM149PT)	proliferation Z-score within cell line (SUM159PT)	proliferation Z-score within cell line (SUM185PE)	proliferation Z-score within cell line (SUM229PE)	proliferation Z-score within cell line (SUM52PE)
CN1CCC(CNc2ccc3ncc(-c4cccc(OC(F)(F)F)c4)n3n2)CC1 [SGI-1776 free base]	0.578	0.321	-3.25	0.202	-4.1	0.46	-2.74	0.316	0.764	0.578	-3.34	0.682	0.652	0.629	0.211	0.45	0.304	0.616	0.0718	1.16
Cc1nc(Nc2n[nH]c3c2CN(C(=O)N[C@H](CN(C)C)c2ccccc2)C3(C)C)c2sccc2n1	-1.1	-2.83	-2.46	-1.68	-0.752	-1.18	-1.98	-2.74	-2.47	-2.29	-1.75	-1.61	-2.27	-2.51	-1.36	-1.63	-1.84	-1.8	-1.89	-1.65
CCc1ccc(/C=C2/SC(=S)NC2=O)cc1	0.471	0.55	0.586	0.657	0.62	0.496	0.572	0.481	0.685	0.712	0.822	0.824	0.747	0.8	0.31	0.704	0.525	0.286	0.218	0.529
Cc1cc(C)nc(NS(=O)(=O)c2ccc(NC(=S)NC(=O)COc3ccc(Br)cc3Cl)cc2)n1	-0.137	0.349	0.382	0.934	0.205	0.44	0.302	0.176	0.505	0.434	0.076	0.513	0.516	-0.3	-0.0157	0.224	0.136	-0.286	-0.353	-0.298
CO[C@H]1C[C@@H]2CC[C@@H](C)[C@@](O)(O2)C(=O)C(=O)N2CCCC[C@H]2C(=O)O[C@H]([C@H](C)C[C@@H]2CC[C@@H](OC(=O)C(C)(CO)CO)[C@H](OC)C2)CC(=O)[C@H](C)/C=C(\C)[C@@H](O)[C@@H](OC)C(=O)[C@H](C)C[C@H](C)/C=C/C=C/C=C/1C	-1.32	-2.08	-0.545	-0.014	-1.39	-0.861	-1.4	-2.51	-0.664	-0.678	-1.3	-1.77	-0.575	-1.03	-0.936	-0.504	-0.19	-1.08	-1.09	-0.96
C=CC(=O)Nc1ccc2ncnc(Nc3ccc(OCc4cccc(F)c4)c(Cl)c3)c2c1	-0.23	0.185	-0.509	-1.73	-0.167	0.411	-1.06	0.305	0.194	0.478	-1.19	-1.49	-0.934	0.469	0.0497	-0.633	-1.69	-0.0379	-0.417	0.267
Cc1ccc(F)c(NC(=O)Nc2ccc(-c3cccc4[nH]nc(N)c34)cc2)c1 [Linifanib (ABT-869)]	0.255	0.389	0.319	0.197	0.599	0.463	0.304	0.425	0.718	0.377	0.521	0.348	0.596	-0.148	0.57	-0.106	0.189	0.22	0.245	0.656
COc1cc2ncnc(Oc3cccc(NC(=O)Nc4cc(C(C)(C)C(F)(F)F)on4)c3)c2cc1OC	0.561	0.382	0.72	-0.323	0.745	0.311	0.56	-0.0107	-0.752	-1.15	0.512	-0.681	0.793	0.594	0.562	0.742	0.335	0.424	0.726	-0.316
COC(=O)[C@]12CCC(C)(C)C[C@H]1[C@H]1C(=O)C=C3[C@@]4(C)C=C(C#N)C(=O)C(C)(C)[C@@H]4CC[C@@]3(C)[C@]1(C)CC2 [Bardoxolone Methyl]	-2.71	-1.74	-0.52	-2.16	-2.26	-0.527	-0.74	-1.18	-2.65	-2.76	-2.15	-1.75	-2.5	-1.52	-2.33	-3.05	-1.43	-2.1	-3.06	-2.06
O=C(NCc1ccccc1)c1csc(Nc2ccncn2)n1 [Thiazovivin]	0.498	0.094	0.651	0.293	0.634	0.274	0.509	0.292	0.795	0.72	0.998	0.718	0.79	-0.257	0.63	0.631	0.478	1.25	0.837	1.62
O=C1NCCc2[nH]c(-c3ccncc3)cc21	0.611	0.462	0.379	1.06	0.57	0.717	-0.218	0.958	0.596	1.06	1.46	-0.309	-0.056	0.458	1.07	0.974	0.502	0.847	0.935	0.715
O=C(NCc1cccc(O)c1)Nc1nc(-c2ccncc2)cs1	-0.187	0.0878	0.195	0.29	0.265	0.105	0.0844	0.382	-0.493	0.0627	0.52	0.429	0.181	0.424	-0.409	0.284	-0.0124	-0.0874	-0.0123	0.224
Cc1ccc(NC(=O)c2cccc(C(C)(C)C#N)c2)cc1Nc1ccc2ncn(C)c(=O)c2c1	0.791	0.584	0.952	0.168	0.856	0.551	0.949	0.329	-1.2	-1.06	0.86	1.18	0.941	1.14	0.652	0.256	0.595	0.0584	0.287	-1.03
COc1cc2ncnc(Nc3cccc(Cl)c3)c2cc1OC [AG-1478 (Tyrphostin AG-1478)]	0.319	0.696	0.459	-0.198	-0.0972	0.637	0.779	0.724	0.812	1.17	0.621	0.914	0.479	0.841	0.874	0.174	0.715	0.887	0.369	1.08
O=C(Nc1cc(C(F)(F)F)cc(C(F)(F)F)c1)c1cc(Cl)ccc1O	-1.51	-1.64	-1.58	-1.06	-2.23	-2.1	-1.66	-1.28	-1.24	-1.41	-1.35	-1.38	-1.3	-1.74	-1.19	-1.37	-1.83	-0.83	-1.18	-1.04
CC(=O)Nc1nc(C)c(-c2ccc(Cl)c(S(=O)(=O)NCCO)c2)s1	-0.121	-0.0841	0.444	-0.13	0.567	0.394	0.306	-0.228	0.524	0.0643	0.204	-0.977	0.401	-0.0154	0.0559	0.352	0.753	-0.75	0.0373	0.386
CCN1CCN(Cc2ccc(-c3cc4c(N[C@H](C)c5ccccc5)ncnc4[nH]3)cc2)CC1	-0.293	0.691	-0.0645	-1.52	-0.805	0.18	0.413	0.528	0.642	0.707	0.699	-0.00228	-0.8	0.712	-0.0951	-0.178	0.579	1.3	-0.168	0.695
CCOc1cc2ncc(C#N)c(Nc3ccc(F)c(Cl)c3)c2cc1NC(=O)/C=C/CN(C)C [Pelitinib (EKB-569)]	-1.45	-0.296	-0.745	-1.61	-0.984	0.35	0.547	0.384	-1.13	-1.37	-0.81	-1.03	-1.63	0.373	-0.714	-1.93	0.653	0.0434	-1.56	-0.288
Cc1ccc(S(=O)(=O)Nc2nc3ccccc3nc2Nc2ccc3nsnc3c2)cc1	0.606	0.377	-0.22	0.648	-0.518	0.596	0.0684	0.558	0.453	0.734	-0.574	0.776	0.554	0.654	0.455	0.517	0.0398	0.474	1.03	1.13
Nc1ccc(C(=O)Nc2cccc(-c3nc(N4CCOCC4)c4oc5ncccc5c4n3)c2)cn1	0.0765	-0.0917	0.469	-0.758	0.468	0.372	0.659	0.27	0.689	0.592	0.582	0.0182	-0.756	-0.149	-0.62	1.16	0.505	-0.584	0.107	-0.935
Cc1c(F)cc(C(=O)NC2CC2)cc1-c1ccc(C(=O)NCC(C)(C)C)cn1	0.691	0.589	0.246	0.258	0.133	0.39	0.48	0.322	0.75	0.288	-0.0686	0.456	0.602	-0.5	0.336	0.392	0.141	0.693	0.712	0.629
